# Assay results published in the supplement of paper PMC7826260.
# This is one part of the list. Cleavage of a single-stranded DNA pool by Rep nickase domains was read by sequencing for 1 h at 37 °C with 3 µM enzyme; only the middle of the 90-letter strands is printed. The score is log2 (uncut reads / reads without enzyme); more negative means more cut, near 0 not cut, and no call is made. Because reads are shares of a total, they shift together, so uncut sequences can rise above 0 when many others are cut.
# Key:
# Assay in all cases: uncleaved DNA left, log2 of reads against the no-enzyme library (log2 ratio); higher = less cleavage (more negative = more Rep cleavage of the k-mer); sequences stand for … in CTCGTCCG…ACCGGAGA
# [1] = test system: T1, Rep nickase domain of Muscovy duck circovirus
# T1 sequence (Rep 1-111, printed without the tag): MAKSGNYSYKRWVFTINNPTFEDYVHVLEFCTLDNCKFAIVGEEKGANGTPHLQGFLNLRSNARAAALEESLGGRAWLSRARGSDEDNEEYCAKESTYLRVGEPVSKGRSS
# Method: (§1)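 A pool of 90-nt single-stranded DNAs with seven random bases just before the constant AC of the nick site (name = the seven bases) was cut by 3 µM recombinant His6-SUMO-tagged Rep nickase domain (300 nM DNA, 50 mM HEPES pH 8.0, 50 mM NaCl, 1 mM MnCl2, 1 h, 37 °C, three replicates). Uncut DNA was amplified and sequenced.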
# [2] = test system: T2, Rep nickase domain of banana bunchy top virus
# T2 sequence (Rep 1-94, printed without the tag): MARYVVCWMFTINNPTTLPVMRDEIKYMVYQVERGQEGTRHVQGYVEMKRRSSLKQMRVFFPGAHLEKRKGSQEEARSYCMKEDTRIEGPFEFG
# Method: as §1
# [3] = test system: T3, Rep nickase domain of cabbage leaf curl virus
# T3 sequence (Rep 1-116, printed without the tag): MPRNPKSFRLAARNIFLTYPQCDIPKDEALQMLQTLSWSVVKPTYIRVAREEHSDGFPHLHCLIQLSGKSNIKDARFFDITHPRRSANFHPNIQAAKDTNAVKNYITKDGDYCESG
# Method: as §1
# [4] = test system: T4, Rep nickase domain of chickpea chlorotic dwarf virus
# T4 sequence (Rep 1-124, printed without the tag): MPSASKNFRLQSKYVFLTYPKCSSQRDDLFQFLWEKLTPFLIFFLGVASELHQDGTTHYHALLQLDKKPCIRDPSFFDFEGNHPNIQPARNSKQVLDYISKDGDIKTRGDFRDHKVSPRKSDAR
# Method: as §1
# [5] = test system: T5, Rep nickase domain of faba bean necrotic yellows virus
# T5 sequence (Rep 1-98, printed without the tag): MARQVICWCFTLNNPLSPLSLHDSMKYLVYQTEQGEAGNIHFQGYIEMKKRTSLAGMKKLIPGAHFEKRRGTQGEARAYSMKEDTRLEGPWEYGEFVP
# Method: as §1
# [6] = test system: T6, Rep nickase domain of maize striate mosaic virus
# T6 sequence (Rep 1-117, printed without the tag): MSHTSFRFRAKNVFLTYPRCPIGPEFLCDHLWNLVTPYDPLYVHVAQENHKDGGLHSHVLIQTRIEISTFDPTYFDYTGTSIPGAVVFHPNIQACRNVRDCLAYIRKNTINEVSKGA
# Method: as §1
# [7] = test system: T7, Rep nickase domain of porcine circovirus 2
# T7 sequence (Rep 2-116, printed without the tag): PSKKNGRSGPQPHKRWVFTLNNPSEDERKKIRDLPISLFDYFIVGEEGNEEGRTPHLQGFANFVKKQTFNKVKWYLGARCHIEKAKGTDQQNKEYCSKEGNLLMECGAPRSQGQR
# Method: as §1
# [8] = test system: T8, Rep nickase domain of tomato yellow leaf curl virus
# T8 sequence (Rep 1-136, printed without the tag): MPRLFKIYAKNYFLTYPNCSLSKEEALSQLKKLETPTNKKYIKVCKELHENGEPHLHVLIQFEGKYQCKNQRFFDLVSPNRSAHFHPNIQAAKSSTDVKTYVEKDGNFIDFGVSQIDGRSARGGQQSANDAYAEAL
# Method: as §1
# [9] = test system: T9, Rep nickase domain of wheat dwarf virus
# T9 sequence (Rep 1-137, printed without the tag): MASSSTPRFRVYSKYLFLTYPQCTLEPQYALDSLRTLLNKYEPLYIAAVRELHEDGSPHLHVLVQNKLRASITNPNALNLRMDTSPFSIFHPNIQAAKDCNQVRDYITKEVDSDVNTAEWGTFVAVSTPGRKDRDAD
# Method: as §1
Sequence,uncleaved DNA left (log2) [1],uncleaved DNA left (log2) [2],uncleaved DNA left (log2) [3],uncleaved DNA left (log2) [4],uncleaved DNA left (log2) [5],uncleaved DNA left (log2) [6],uncleaved DNA left (log2) [7],uncleaved DNA left (log2) [8],uncleaved DNA left (log2) [9]
TCGTCTA,-0.145,-0.19,-0.125,-1.06,-0.0959,-0.194,-0.493,-0.101,-0.186
TTATTCT,-3.62,-0.0387,-3.22,-3.03,-0.062,-1.27,-3.06,-0.0961,-1.22
TTCGTAC,-0.033,-0.0564,-0.00278,-0.663,-0.0527,-0.487,-0.0778,0.0239,0.0301
CCCACCA,-0.142,-0.0716,-0.254,-1.44,-0.0225,-0.636,-0.336,-0.147,-0.132
AAGGAGC,0.0297,0.0952,0.181,1.02,-0.0255,0.656,0.229,-0.0866,-0.0527
GAGCTAC,-0.104,-0.0268,0.0482,0.181,-0.0781,0.978,-0.0536,-0.0579,0.0491
AATATGT,0.0614,-0.193,-0.563,-1.55,0.0185,-0.854,-3.18,-0.0394,0.0348
GGACAAA,0.1,0.112,0.874,2.05,0.103,2.26,0.281,0.0982,0.214
GGTGTCC,-0.0855,-0.0161,0.321,0.995,-0.111,1.7,0.0249,-0.0325,0.0321
GATTGGG,0.095,0.049,-0.527,-0.228,0.12,-0.756,0.212,0.205,-0.0287
TGGCTGG,0.0349,-0.163,0.103,0.486,-0.0466,0.56,0.0906,-0.0418,-0.0512
ATCGTGG,-0.0595,-0.0729,-0.144,0.0042,-0.0505,-0.778,0.0989,-0.0272,-0.105
GTCGCCC,-0.155,0.0151,0.213,0.617,-0.162,1.39,-0.0258,-0.099,0.0124
CCGAAGG,0.099,0.0177,0.313,1,0.102,0.498,0.225,-0.013,0.134
CTAGACG,-0.06,-0.168,-0.717,-0.976,-0.143,-1.15,0.0864,-0.0518,-0.168
TTGAGCC,-0.0484,0.0523,-0.136,-0.257,-0.113,-1.05,-0.206,-0.0246,-0.0836
TCCTGGC,-0.0627,-0.19,-0.23,-0.598,-0.0561,-1.15,-0.0726,-0.14,-0.0917
ATGTCAT,-0.0866,0.0772,0.074,-0.0886,-0.0352,0.0862,-2.08,0.0258,-0.00608
GGTGGTA,0.0409,-0.049,0.47,1.05,0.066,1.88,0.177,0.039,0.111
CCGCATC,-0.073,-0.0912,0.118,-0.0311,0.0519,-0.464,-0.108,0.0116,0.0152

Sequence,uncleaved DNA left (log2) [1],uncleaved DNA left (log2) [2],uncleaved DNA left (log2) [3],uncleaved DNA left (log2) [4],uncleaved DNA left (log2) [5],uncleaved DNA left (log2) [6],uncleaved DNA left (log2) [7],uncleaved DNA left (log2) [8],uncleaved DNA left (log2) [9]
GTCCAGC,0.0464,0.12,0.267,0.753,0.0625,1.07,0.0432,0.105,0.0708
GTGCTAA,0.0719,0.0344,0.307,0.951,0.000301,1.63,0.028,0.0296,0.0174
CCACTCG,-0.12,0.0154,-0.855,-0.203,-0.0483,-0.977,0.103,-0.00827,-0.101
ACCAATT,0.116,-0.0572,-0.383,-2.15,0.089,-0.616,-0.133,-0.0822,0.0771
CGTGCTT,-0.0379,-0.0364,-0.0672,-0.886,-0.0173,-0.15,-0.406,-0.131,-0.087
GACGCCT,-0.0183,-0.1,-0.108,-1.8,-0.133,0.227,-0.177,-0.0137,-0.132
ACTAGTC,0.0198,0.0482,-0.196,-0.169,0.0273,-0.903,0.0805,0.0647,-0.0474
AATAGGT,0.0674,0.012,0.399,1.25,0.209,1.59,-0.033,-0.0523,0.106
ACTATAG,0.0233,-0.025,-0.775,-0.426,-0.0222,-1.37,0.0222,-0.114,-0.195
CGGATCG,0.058,-0.0971,-0.687,-0.225,-0.0735,-0.776,0.214,0.0274,-0.0706
GCTAAAC,-0.0685,0.14,0.0371,0.375,-0.0562,0.087,0.126,-0.0249,0.0173
TGATTCC,-0.265,0.0297,0.24,0.143,0.0514,0.504,-0.44,-0.0514,0.0796
ACCCAGG,0.0884,0.218,-0.25,0.0499,0.0633,-0.683,0.166,0.0777,0.121
TCTAGTT,0.0913,-0.0605,-0.0634,-1.84,0.0194,-0.425,-0.556,-0.0319,-0.113
GGTCCGT,-0.0253,0.0744,0.452,1.14,-0.0782,1.41,0.134,0.0221,0.0322
ATCTTTT,-3.26,-1.1,-0.475,-2.38,-0.141,-0.941,-3.69,-0.154,-0.128
AGCCAGA,-0.105,-0.0689,-0.00159,0.212,-0.153,-0.0535,-0.027,-0.0428,-0.125
AGCACGT,-0.0155,0.0134,0.0393,0.43,-0.0644,0.784,0.0179,-0.0772,-0.0313
CGAATAG,0.0561,0.112,-0.274,-0.0888,0.142,-0.625,0.129,0.0642,-0.0414
TTCTGCC,0.0624,0.0144,-0.12,-0.601,0.0892,-0.939,0.0733,0.0188,-0.0627

Sequence,uncleaved DNA left (log2) [1],uncleaved DNA left (log2) [2],uncleaved DNA left (log2) [3],uncleaved DNA left (log2) [4],uncleaved DNA left (log2) [5],uncleaved DNA left (log2) [6],uncleaved DNA left (log2) [7],uncleaved DNA left (log2) [8],uncleaved DNA left (log2) [9]
GCGATGA,0.0414,-0.104,0.0379,0.537,-0.0629,1.19,0.0226,-0.0611,0.042
GCTATAG,0.118,0.0624,-0.478,-0.258,0.0962,-1.03,0.204,0.115,-0.0322
TGATCTT,-3,-0.045,-0.00519,-1.95,0.0359,0.393,-3.04,0.0987,-0.189
AGCGGGT,0.0227,0.0817,0.145,0.557,-0.0282,1.48,0.0251,-0.0858,-0.00596
GAATTTT,-3.38,-0.701,-3.33,-2.84,-0.156,-2.23,-3.64,-0.408,-3.26
CCGTAAT,-1.78,-0.391,-1.66,-2.05,-1.19,-0.457,-3.05,-0.26,-2.03
GGGGAAG,0.266,0.0346,0.936,1.97,0.0359,2.1,0.287,0.0883,0.191
TATAAGC,0.0793,0.0619,-0.0419,-0.382,0.153,-0.929,0.215,0.143,0.0488
CGTGTGC,0.0964,-0.01,-0.422,-0.34,0.0515,-0.796,0.114,0.147,0.0803
CATACAT,0.0182,-0.309,0.248,-0.233,0.0181,0.111,-0.119,0.0244,0.0911
TACGCCC,-0.0579,-0.205,-0.33,-0.79,-0.146,-0.701,-0.191,-0.127,-0.128
ATACAGT,0.0759,-0.0305,-0.507,-1.55,-0.0117,-0.897,0.0391,-0.0379,-0.0302
CTCCAAT,-0.0176,0.0133,0.22,-0.477,0.107,-0.412,-0.149,-0.0524,0.0711
TAGGTTT,0.0158,-0.0572,-0.414,-1.76,0.0339,1.47,-3.21,0.161,-0.105
CGAAGGG,0.039,0.0376,-0.028,0.341,-0.0944,-0.332,0.188,-0.0195,-0.0414
CTGATTG,-0.0176,-0.0764,-0.3,0.307,0.0826,-0.326,-0.0156,-0.0387,-0.0144
GTAGCTT,-0.109,0.0679,0.35,0.641,-0.0344,1.62,0.0379,0.0682,0.125
CAAGTCT,-0.0205,-0.051,-1.97,-3,0.015,-0.791,-0.415,0.00023,-0.358
CTGGACA,0.114,0.135,0.73,1.64,-0.0636,1.95,0.38,0.0367,0.219
AGACTGA,-0.00195,0.000643,0.0481,0.769,-0.0157,1.66,0.0396,-0.0506,0.00635
